# Results taken from the supplement of paper PMC12217912.
# The list shows a part of the results. Sequences were assembled here from the parent chain. Inactive controls read about 0.05.
# B1: TEV protease; numbered along this chain (parent)
# chain: MGESLFKGPRDYNPISSSICHLTNESDGHTTSLYGIGFGPFIITNKHLFRRNNGTLVVQSLHGVFKVKDTTTLQQHLVDGRDMIIIRMPKDFPPFPQKLKFREPQREERICLVTTNFQTKSMSSMVSDTSCTFPSGDGIFWKHWIQTKDGQCGSPLVSTRDGFIVGIHSASNFTNTNNYFTSVPKNFMELLTNQEAQQWVSGWRLNADSVLWGGHKVFMVKPEEPFQPVKEATQL
# Variants of: B1
# Assay: raw area under fraction-flipped curve 0-4 h after induction (AUC4h, not background-subtracted), DNA-recorder readout of cleavage of the substrate (dimensionless); higher = more cleavage of the substrate by the protease variant
# Details: temperature: 34 °C; time window: 0-4 h after rhamnose induction
# 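Note: Bxb1 expression induced with 0.2% (w/v) L-rhamnose at OD600 near 0.5, cultures sampled hourly, flipped fraction per protease–substrate barcode pair counted by paired-end Illumina sequencing.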
Variant,area with substrate ENCYFQS,area with substrate ENEYFQS,area with substrate ENFYFQS,area with substrate ENGYFQS,area with substrate ENIYFQS,area with substrate ENNYFQS,area with substrate ENSYFQS,area with substrate ENTYFQS,area with substrate ENWYFQS,area with substrate ENDYFQS,area with substrate ENQYFQS,area with substrate ENHYFQS,area with substrate ENMYFQS,area with substrate ENVYFQS,area with substrate ENKYFQS,area with substrate ENYYFQS,area with substrate ENPYFQS,area with substrate ENRYFQS
S169W,0.0519,0.0539,0.0827,0.0544,0.0469,0.0671,0.0713,0.0635,0.0575,,,,,,,,,
S171M,0.0569,0.0686,0.0533,0.0597,,0.0615,0.0578,0.06,,0.0572,0.0613,,,,,,,
F180N,0.0607,0.0549,0.0575,,0.0544,0.0441,0.0448,0.0737,,0.0512,0.0564,0.0559,0.0445,0.029,,,,
L191Y,0.0619,,,0.0609,,0.0576,0.0791,0.0652,0.0119,0.0683,0.0663,,0.0641,,0.0291,0.0456,,
Q194F,0.0578,0.0739,0.0454,,0.0978,0.0506,0.0616,,0.0266,,0.0819,0.0566,,0.0808,0.0511,,,
G202Q,0.0654,0.0705,0.0578,0.0683,0.0836,0.0018,0.0744,0.0655,0.0559,0.0592,0.0581,0.0874,0.0693,0.0621,0.057,0.056,0.0561,0.0574
W203G,0.0525,0.0619,0.0563,0.064,0.0667,0.103,0.0597,0.0472,,0.058,0.0645,,0.0785,,,,,
E223K,0.0694,0.0823,0.0553,0.0576,,0.0471,0.0541,0.0586,0.0309,0.0589,0.0477,0.0559,0.0808,0.103,0.0743,,0.0511,0.0565
K230C,0.0258,0.0616,,0.066,,0.097,,,,0.0596,0.0606,0.0567,0.0744,0.0682,0.0578,,0.0719,0.0651
I15K,,0.0554,0.0465,0.0602,0.0595,0.0632,0.0672,0.0535,0.0551,0.047,0.0554,0.0549,0.0696,0.0735,0.065,0.0576,0.0451,0.0553
G54V,,0.0559,0.0599,0.0552,0.0579,0.0606,0.0124,0.0538,0.0883,0.0526,0.0516,0.0535,0.0459,0.0541,,0.0266,,0.055
P89S,,0.0649,,0.0585,0.0788,0.0561,0.0681,0.0661,,0.0564,0.0647,0.0668,,0.0594,0.0509,0.0617,0.0549,
R106A,,0.0757,0.0613,,,0.0657,0.0605,,0.0536,0.0482,0.0526,0.0613,0.0895,0.105,,,0.0738,
S123I,,0.0617,0.0552,,0.112,0.068,0.0562,0.0576,,0.0638,0.0402,,0.108,0.0731,0.0632,0.076,0.0531,0.0726
S127E,,0.0647,0.0725,0.0595,0.113,0.0618,0.0551,0.0487,,0.0621,0.0615,,0.0831,,,0.0477,0.063,0.0643
I167A,,0.0578,,0.0706,0.0637,0.0566,,0.0655,,0.0845,0.0629,0.0663,0.0488,0.0513,,0.0649,0.0489,0.0494
S171L,,0.0672,,,,0.0577,0.0624,,0.0015,0.07,0.0548,0.0558,,,0.066,0.0572,,0.0662
T176K,,,0.0612,,0.0753,,,,,0.0356,,,,0.0488,0.0603,,,
W199N,,0.064,0.0629,,0.0617,0.0616,0.0587,,,0.0623,0.0729,0.0571,0.0028,0.0849,0.0542,0.057,0.062,
Q227K,,0.0669,0.065,0.044,,0.0712,0.0644,0.0456,,0.0606,0.0543,0.0426,0.121,0.0909,0.069,,0.0447,
Q234N,,0.0606,0.0648,0.0665,0.113,0.0833,0.0632,0.0632,,0.0605,0.0727,,0.0639,0.0667,0.0473,,,
I84G,,0.0581,,0.0631,0.0935,,0.0438,0.0445,,,0.0572,,,0.0762,,0.053,,
S127K,,,,0.0629,,0.0516,,0.0518,,,0.0643,0.0642,,,0.0604,,,0.0755
